Assay results published in the supplement of paper PMC8728848.
Some of the results follow.

Columns and labels:
Experiment in all cases: glycan array binding signal (z-score within array); higher = stronger binding
Settings in all cases: glycan notation: IUPAC condensed, linker removed
[1] = molecular target: GlcNAc(b1-4)GlcNAc(b1-4)GlcNAc(b1-4)GlcNAc(b1-4)GlcNAc(b1-4)GlcNAc
How it was run: (§1)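 Glycan array data came from 3228 arrays in the Consortium for Functional Glycomics database, and only arrays with an available protein sequence were kept. Glycan names were put into IUPAC-condensed notation, and columns mapping to the same glycan were averaged. The binding signal is a within-array Z-score, averaged across arrays of one protein sequence run at different concentrations or buffers and across linkers. A negative Z-score can be read as non-binding.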

[2] = molecular target: GlcNAc(b1-4)[GlcNAc(b1-6)]GalNAc
How it was run: as §1

[3] = molecular target: GlcNAc(b1-6)Gal(b1-4)GlcNAc
How it was run: as §1

[4] = molecular target: GlcNAc(b1-6)GalNAc
How it was run: as §1

[5] = molecular target: GlcNAc6S(b1-3)Gal(b1-4)GlcNAc
How it was run: as §1

[6] = molecular target: Kdn(a2-3)Gal(b1-3)GalNAc
How it was run: as §1

[7] = molecular target: Kdn(a2-3)Gal(b1-3)GlcNAc
How it was run: as §1

[8] = molecular target: Kdn(a2-3)Gal(b1-4)Glc
How it was run: as §1

[9] = molecular target: Kdn(a2-3)Gal(b1-4)GlcNAc
How it was run: as §1

[10] = molecular target: Kdn(a2-3)Gal(b1-4)[Fuc(a1-3)]GlcNAc
How it was run: as §1

[11] = molecular target: Kdn(a2-6)Gal(b1-4)GlcNAc
How it was run: as §1

[12] = molecular target: Man(a1-2)Man(a1-2)Man(a1-3)Man
How it was run: as §1

[13] = molecular target: Man(a1-2)Man(a1-2)Man(a1-6)[Man(a1-3)]Man
How it was run: as §1

[14] = molecular target: Man(a1-2)Man(a1-3)Man
How it was run: as §1

[15] = molecular target: Man(a1-2)Man(a1-3)[Man(a1-2)Man(a1-6)]Man
How it was run: as §1

[16] = molecular target: Man(a1-2)Man(a1-3)[Man(a1-2)Man(a1-6)]Man(a1-6)[Man(a1-2)Man(a1-2)Man(a1-3)]Man
How it was run: as §1

[17] = molecular target: Man(a1-2)Man(a1-3)[Man(a1-2)Man(a1-6)]Man(a1-6)[Man(a1-2)Man(a1-2)Man(a1-3)]Man(b1-4)GlcNAc(b1-4)GlcNAc
How it was run: as §1

[18] = molecular target: Man(a1-2)Man(a1-3)[Man(a1-6)]Man(a1-6)[Man(a1-2)Man(a1-3)]Man(b1-4)GlcNAc(b1-4)GlcNAc
How it was run: as §1

[19] = molecular target: Man(a1-2)Man(a1-6)[Man(a1-3)]Man(a1-6)[Man(a1-2)Man(a1-2)Man(a1-3)]Man
How it was run: as §1

[20] = molecular target: Man(a1-2)Man(a1-6)[Man(a1-3)]Man(a1-6)[Man(a1-2)Man(a1-2)Man(a1-3)]Man(b1-4)GlcNAc(b1-4)GlcNAc
How it was run: as §1

[21] = molecular target: Man(a1-3)[Man(a1-6)]Man
How it was run: as §1

[22] = molecular target: Man(a1-3)[Man(a1-6)]Man(a1-6)[Man(a1-2)Man(a1-3)]Man(b1-4)GlcNAc(b1-4)GlcNAc
How it was run: as §1

[23] = molecular target: Man(a1-3)[Man(a1-6)]Man(a1-6)[Man(a1-3)]Man
How it was run: as §1

[24] = molecular target: Man(a1-3)[Man(a1-6)]Man(a1-6)[Man(a1-3)]Man(b1-4)GlcNAc(b1-4)GlcNAc
How it was run: as §1

[25] = molecular target: Man(a1-3)[Man(a1-6)]Man(b1-4)GlcNAc(b1-4)GlcNAc
How it was run: as §1

[26] = molecular target: Man(a1-3)[Man(a1-6)]Man(b1-4)GlcNAc(b1-4)[Fuc(a1-6)]GlcNAc
How it was run: as §1

[27] = molecular target: Man(a1-6)Man
How it was run: as §1

[28] = molecular target: Man(b1-4)GlcNAc
How it was run: as §1

[29] = molecular target: MurNAc(b1-4)GlcNAc
How it was run: as §1

[30] = molecular target: Neu5Ac(a2-3)Gal
How it was run: as §1

[31] = molecular target: Neu5Ac(a2-3)Gal(b1-3)GalNAc
How it was run: as §1

[32] = molecular target: Neu5Ac(a2-3)Gal(b1-3)GalNAc(b1-3)Gal(a1-4)Gal(b1-4)Glc
How it was run: as §1

[33] = molecular target: Neu5Ac(a2-3)Gal(b1-3)GalNAc(b1-4)Gal(b1-4)Glc
How it was run: as §1

[34] = molecular target: Neu5Ac(a2-3)Gal(b1-3)GalNAc(b1-4)[Neu5Ac(a2-3)]Gal(b1-4)Glc
How it was run: as §1

[35] = molecular target: Neu5Ac(a2-3)Gal(b1-3)GalNAc(b1-4)[Neu5Ac(a2-8)Neu5Ac(a2-3)]Gal(b1-4)Glc
How it was run: as §1

[36] = molecular target: Neu5Ac(a2-3)Gal(b1-3)GalNAc6S
How it was run: as §1

[37] = molecular target: Neu5Ac(a2-3)Gal(b1-3)GlcNAc
How it was run: as §1

[38] = molecular target: Neu5Ac(a2-3)Gal(b1-3)GlcNAc(b1-2)Man
How it was run: as §1

[39] = molecular target: Neu5Ac(a2-3)Gal(b1-3)GlcNAc(b1-2)Man(a1-3)[GlcNAc(b1-4)][Neu5Ac(a2-3)Gal(b1-3)GlcNAc(b1-2)Man(a1-6)]Man(b1-4)GlcNAc(b1-4)GlcNAc
How it was run: as §1

[40] = molecular target: Neu5Ac(a2-3)Gal(b1-3)GlcNAc(b1-2)Man(a1-3)[Neu5Ac(a2-3)Gal(b1-3)GlcNAc(b1-2)Man(a1-6)]Man(b1-4)GlcNAc(b1-4)GlcNAc
How it was run: as §1

[41] = molecular target: Neu5Ac(a2-3)Gal(b1-3)GlcNAc(b1-2)[Neu5Ac(a2-3)Gal(b1-3)GlcNAc(b1-4)]Man(a1-6)[Neu5Ac(a2-3)Gal(b1-3)GlcNAc(b1-2)Man(a1-3)]Man(b1-4)GlcNAc(b1-4)GlcNAc
How it was run: as §1

[42] = molecular target: Neu5Ac(a2-3)Gal(b1-3)GlcNAc(b1-3)Gal(b1-3)GlcNAc
How it was run: as §1

[43] = molecular target: Neu5Ac(a2-3)Gal(b1-3)GlcNAc(b1-3)Gal(b1-4)GlcNAc
How it was run: as §1

[44] = molecular target: Neu5Ac(a2-3)Gal(b1-3)GlcNAc(b1-3)GalNAc
How it was run: as §1

[45] = molecular target: Neu5Ac(a2-3)Gal(b1-3)GlcNAc(b1-6)GalNAc
How it was run: as §1

B1: RBMC2 (Vibrio cholerae) (protein)
chain: KISVRSGFAIDAIGASASTLVGGTGGNLNAAVNVKDIKAIDLTWGKYYWGGYHLLALDFRMSNGSVISMGSKNYAYSKQTERFTVPAGSRIKGIKAWTAGWLLDGVQFELA
glycan array binding signal (z-score) [1]: -0.35 | glycan array binding signal (z-score) [2]: -0.418 | glycan array binding signal (z-score) [3]: -0.407 | glycan array binding signal (z-score) [4]: -0.19 | glycan array binding signal (z-score) [5]: -0.445 | glycan array binding signal (z-score) [6]: 0.106 | glycan array binding signal (z-score) [7]: -0.337 | glycan array binding signal (z-score) [8]: 0.085 | glycan array binding signal (z-score) [9]: -0.461 | glycan array binding signal (z-score) [10]: -0.214 | glycan array binding signal (z-score) [11]: -0.264 | glycan array binding signal (z-score) [12]: -0.403 | glycan array binding signal (z-score) [13]: -0.293 | glycan array binding signal (z-score) [14]: -0.321 | glycan array binding signal (z-score) [15]: -0.48 | glycan array binding signal (z-score) [16]: -0.387 | glycan array binding signal (z-score) [17]: -0.129 | glycan array binding signal (z-score) [18]: -0.321 | glycan array binding signal (z-score) [19]: -0.305 | glycan array binding signal (z-score) [20]: -0.336 | glycan array binding signal (z-score) [21]: -0.45 | glycan array binding signal (z-score) [22]: 0.354 | glycan array binding signal (z-score) [23]: -0.045 | glycan array binding signal (z-score) [24]: -0.013 | glycan array binding signal (z-score) [25]: 4.41 | glycan array binding signal (z-score) [26]: 3.25 | glycan array binding signal (z-score) [27]: 0.668 | glycan array binding signal (z-score) [28]: -0.343 | glycan array binding signal (z-score) [29]: -0.344 | glycan array binding signal (z-score) [30]: -0.345 | glycan array binding signal (z-score) [31]: -0.084 | glycan array binding signal (z-score) [32]: -0.295 | glycan array binding signal (z-score) [33]: -0.274 | glycan array binding signal (z-score) [34]: -0.313 | glycan array binding signal (z-score) [35]: -0.397 | glycan array binding signal (z-score) [36]: -0.431 | glycan array binding signal (z-score) [37]: -0.35 | glycan array binding signal (z-score) [38]: -0.185 | glycan array binding signal (z-score) [39]: -0.22 | glycan array binding signal (z-score) [40]: -0.017 | glycan array binding signal (z-score) [41]: -0.285 | glycan array binding signal (z-score) [42]: -0.37 | glycan array binding signal (z-score) [43]: -0.185 | glycan array binding signal (z-score) [44]: -0.286 | glycan array binding signal (z-score) [45]: -0.2
